# The other results are listed elsewhere or left out. At the low end of the ranking the order means little. Measured with an extract: partners may take part in the binding.
# Biological target: T1, HNF4alpha2 (COS-7 nuclear extract) (UniProt P41235)
# T1 sequence: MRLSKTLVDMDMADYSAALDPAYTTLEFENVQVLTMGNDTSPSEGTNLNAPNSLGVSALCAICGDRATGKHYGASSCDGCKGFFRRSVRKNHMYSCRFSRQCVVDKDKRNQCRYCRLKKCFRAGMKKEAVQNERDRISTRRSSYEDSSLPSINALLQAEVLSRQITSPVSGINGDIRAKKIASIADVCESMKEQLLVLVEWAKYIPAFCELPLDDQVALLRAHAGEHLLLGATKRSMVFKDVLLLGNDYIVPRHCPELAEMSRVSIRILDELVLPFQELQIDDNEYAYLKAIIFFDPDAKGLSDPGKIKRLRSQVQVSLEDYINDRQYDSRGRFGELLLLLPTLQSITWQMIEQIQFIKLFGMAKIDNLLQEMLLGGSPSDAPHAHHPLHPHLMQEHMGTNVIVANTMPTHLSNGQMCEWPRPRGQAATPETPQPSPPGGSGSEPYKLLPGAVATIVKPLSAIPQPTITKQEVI
# Assay: protein-binding microarray
# Conditions: COS-7 nuclear extract on double-stranded Agilent 4x180k PBM; binding buffer, salt, pH and temperature not given; high values mean tight binding; double strand, one strand shown; sequences stand for … in …GCCTAGGGAGATTAGAGTATCGGTCGA
row,Sequence,binding signal (log2 normalized intensity)
1,TCAGCAGAGGACAGAAGAAGGAAAAGGCCT,-0.984
2,GTGTGGCTTCCAAGGGGAATGTGGATGCTG,-0.766
3,GAACTCTAAGCAGCGAAGCTGTGTCAGGCA,-0.795
4,AGGCCTTCCTATCTCTACTTGCCGAAACAT,0.743
5,CCATGACCTTTGTACTAATGATTTGTAAAT,5.25
6,TAACAGCTTCTGTTCGCAGACCTGCCAAAG,-1.08
7,ATCTAAGGGCCTAGAAGAGTTCCTGACAAT,-1.17
8,GTGGGGGAGGAGACAGCTACGGAATGCTTC,-1.15
9,ATTCAGAACTTTGACCACCTACTGTTTGTG,2.05
10,ACACACAATAAGGACTTTGGACCGTCTTGT,7.27
11,TGGCTCATTTTGGGCATCTGCAGGGCAGCA,-1.09
12,AGCGGCCTTCCCCTTTTTCTGTAAAGCTTT,1.21
13,TTGCTCCCTGGGAACCCCTCCAGCATTCTC,1.94
14,ACTTTGGTGGCTTTTGCTGACATGCTCTTG,1.2
15,TCACTGACCTCTGCCCTACTGTATATCCTG,2.39
16,TCTCAAGTTCAGTCTTTATTGGTACGTTCC,2.2
17,CTCCCCCAGGCGACTGGGCCAGGAGCAGGA,2.33
18,TTGAGGTTCACTGGGGAGACTCTCTCTCCT,-1.06
19,AAACTTTATCTCCCTTGCTTTATCCGACCA,0.536
20,CAGCTTTTATGTCAAACCACTTCCCCTTTC,1.85
21,GCTTGGCAAACATTTCACTTTGCTCCCTCC,1.16
22,ATTGCCGACCTCATGAGTAGAGAGCAATCA,-1.18
23,CCTGTTTGCTTCTGCTGTTTGTTTCACTAA,1.5
24,TGTCAGCTAGAGGCCCTGCATTAAACAAGA,-1.16
25,ACCTTTGCTCATGTCCTCTTGCTTCCTGGG,1.37

row,Sequence,binding signal (log2 normalized intensity)
1,GCCTCACTAAGTCCTGCTTAGAGCATCCAA,-1.17
2,CAGGGAGAAGGCAAAAATGCAGGCAATGAA,-1.18
3,AAAGGGACAGGGGTCATCAGGGGTCCTGGC,0.949
4,CAACAAGGTGGAGACCTCTGCAGGAGGACT,-1.15
5,CACTTGGATAGCGCGTGGCCCAAGGCCTCT,-1.3
6,AGTATGCAGCGGGCAGCCCGTGTGGGCGGG,-0.679
7,CTGTCACACTTGCCCTTTGCCCTCACTGGT,7.1
8,CCCTAATCTCACTCTTTGTTATTTATTGGC,1.89
9,AGTCTGTGACTTGATCTTTGACTGGATTCT,2.16
10,AGTATTGAGGCCGGAGGGCAGGCGGGCCGC,-0.782
11,CCCTGAGGCCAATGAGGGAAGTTATTAACA,-0.951
12,ATCCAGTCCTCACCCAGAACTTTGACCGTT,4.59
13,ATGCCCCTCCCAGGGACACATGCCCCTTCC,5.44
14,TAGTTACCCAAGGGATGGCATCACCTTTGG,-0.611
15,GTACTTTTCTGTTTGTCTTACTGTGTTGTC,2.24
16,TTCCAGCCAAACCAGGTCATGCATTCTGCT,-1.17
17,TGAACGACTTGACAAAGGTCATTCATGTGC,3.72
18,AAGTAGTCAGTGTCCAGCACACCTTTTTTT,-1.2
19,TGTCATCCTTTTGCTTAAAACGCCTGCAGA,0.637
20,AGTAAAACTGGAAAATCAAAGACTCAGATG,-1.19
21,ATTCCAGAGAAGCACATCCAGGCAGCTTCA,-1.12
22,TCTTCAGAGAGTCTGGCTGACTAACAAGCT,-1
23,TCAAAGGCAGCCTTCGTTTGCTTTTCCTTA,-0.675
24,AATAGTGACCTCTGCTGGCCAGTGGAAAAC,1.08
25,GGCATGGGAAGCAGTGAGGGTGGGTTCAAA,0.803

row,Sequence,binding signal (log2 normalized intensity)
1,GCATTCTGTTTCCTACTGACCTCCGACCCC,6.31
2,ACCGCAAATAAAAGAGGGCCCCATCATGTG,-1.12
3,CTATTAACTTTTCCATGTCCAAAGGTCTTC,4.86
4,ATCTTCTTTCCTGGTGCCTCCTTATCTCCC,1.61
5,TCGCCTTTTATTTTTCCCCTGAAATATCAT,1.64
6,CCTATTTGCTTGTGAATGAAAGAGACTAGT,1.14
7,CACCAGGTGGAGTCTCCTTGAGGGCAAAGT,3.33
8,GTGCTATCTCAGCTCACTGTAACCTTTGCC,3.93
9,AACTCTTCATTATGGATAGGCACATATTGG,1.73
10,TCTCCAAGTCAAACATTAGCCAGGATCAGA,-1.22
11,AGGCATTAGCAATGCGAGAGTACACAGAAG,-1.03
12,TCCTGCTAGTCACATCAAAACCTCCCAGCT,-0.66
13,CGAGTTGTTCTCCGTCTATAAATACGCCTC,-1.15
14,TGGGTTATGTTAGACCAGCCAATTCTACTG,-1.05
15,TGGGGGAAGGGCAGGGCCTGGGAGATAACC,-1.18
16,GGTCAAAGTGCGTCCTGTGGCAAAGGTGAA,2.73
17,GCAGGTGAACGACTTGACAAAGGTCATTCA,4.28
18,GAATCCCGGGAATCCTCAGCCTTCTCCGCG,-1.21
19,GTACTTTGGAACCTGAAAGAGCAACTACTC,2.5
20,CAAATATTTACTGAATGAATGTCCAACTTG,-0.173
21,TGAGGGTAAAGATCTTGAGGCCCACAAGGA,-1.19
22,TAACAGACTGTAGGCTTGGAGCCTTGTAAA,-0.934
23,CCATGGACCTGACACCCGCTGGCGCCATCC,-1.25
24,AGGTTACAATTGTCCCCAAGATTGAGGCCA,1.21
25,CCTCCTGTGGTAATAAGTTGGTGGACGCTG,1.02

row,Sequence,binding signal (log2 normalized intensity)
1,GGAATGTCCTGGCAGGCTTCGAAAAATGGG,-0.695
2,GCACATGGCATGATCCCTGACTCATAGCTC,-1.18
3,TGTTAGCACTCAGTCATTGCCATCTGCAAG,-1.09
4,GCTGTATGTTCTAACCATAGGAGGCTGGTC,0.647
5,TGCCTAGAGGCCTGGGAATGCCTAGGGGGA,-1.11
6,CACTCAGCTGTGTCTACCCTTTTGCCCTTT,5.62
7,CTGGGCGCTGGGAAGACAGTCTTGGGCACA,-1.27
8,TTCTAGACACCAAACACAGTTGCTGTCTAG,0.594
9,GGAGCGGCCTGCACCTGTTTCTGGAGAATG,-1.19
10,GAGTGTCAGAGGCTAAACCTAGCCCCCTTT,3.05
11,GCTCAAAGGCGGCCCGGGTGGGGGTGGGGC,-1.14
12,CTTCATTCTCATCTTCTATGATAAGATCTT,1.47
13,TCCGCGAGGGTCCCCACCTTCCATTACCAC,1.47
14,CCGGGGCAAACAAGGGCAACTCTAATAGCA,-1.15
15,TGACCTTTGTTTGGTCAAATACCTAATTGT,2.63
16,GTCTTTCAGGAAGGAATAAAAGGCTGTTCT,0.708
17,TCTTTGAGAAAACTCCAAAGACATTATCAC,-1.1
18,CACAGACAAATATTTGCTGTTACTCTAGTA,0.789
19,AAAATACCTGGAAGTATTTATTGAGCACAC,-0.723
20,CAACCAGGAGAATTTCAGTATTAATGTCAA,0.794
21,CCCACTCCCCCTGCTGGACACCGAGGTCCT,2.1
22,TTGCCCTTTGCCCAACCCTCTCCCACTCCC,4.91
23,TTCCAAAGGTCACCCGTATTCCTTAGCTTA,1.6
24,TTTTCGGAAGAACTGGTTCTGTGGAATTTG,1.83
25,TTCCACGACTCCCCCGCTCACCCCTCCCCA,6.39

row,Sequence,binding signal (log2 normalized intensity)
1,AGTTGGAAAATATTTCTCTGAACTTTGACC,8.41
2,CCCAAAAGGTCAATCTGGATTGTACTGTGT,3.1
3,ATTCATAAAGTTCTCTGGCAAATATCAGCA,0.257
4,AGAGGTCACTCAGCAATAAATACCAAAGCC,-1.03
5,CAGAAGTCATGTCTCATTGCCCCTTGAGCT,3.52
6,TTCCAGGGATGTTTGGCAGCTGAGGATTGT,1.61
7,GCGTATGAAGCTTTGACCCTGTTTTGTAAA,2.4
8,AGAGCAGACTATTATCAGCCAAAGTTCAGT,1.87
9,TGAGGTCAAGGCTTCTGCCCCAGACACGCT,1.56
10,CCCATTTTGTCCCTCCCTGCAGCTGAAGCA,1.49
11,CTTTGGACTTTTGAACTAAGGCTGGAATGA,2.92
12,CCACTGCGACCTTTGCCCTCCCTAAATCCA,6.95
13,AGGCAATGACTCCAAAGTTCAAACTCTGAA,2.2
14,GAGGCCAGTTTGACCTTTGCATTCTTACCC,5.97
15,GTTAAGACCTACATTAAGACCACCTCTATG,-1.12
16,TACCCCTGTGGTTGACCTTTAGTCTCTAGC,6.48
17,CCCTCAGGGAATCCTGCATTATCAGGCAAG,-0.878
18,CCAGACAGGGGGGCGCCTACGGACGGGTAA,-1.14
19,GCAGGGAGGAGCGCATCGGGCGCCAGCGCC,-1.05
20,ATTTCACCCAGGTATGACAAGCATGCACTG,-1.07
21,GCCTTTTACCTTGGCAGCCACTGAGGCTCT,-1.21
22,CTGACTGGAAGAGCCTGCAAGGGAGACCAG,-1.07
23,GAAAGTAGTTGGGGATTGTGTAACATCTAA,-1.11
24,AGGTAGGGCCTACCTGCCTGAGCTATCTGT,-1.08
25,CACTCCCACACTGGTAACCTTTAGTCTCCA,3.28

row,Sequence,binding signal (log2 normalized intensity)
1,TATTCCATATCAGCTTTCTTTTCCAACCAT,1.48
2,AACAAAAAGGGCAAAGGTCAGCTCATTCCC,6.63
3,TTGGACTTTGGTCATCCTTTACTTTCCCAA,5.18
4,GCAAATAGGATTAGGAAACCTGGTAGCGTG,-1.02
5,AACTTGTTTTTGATTTTGCAGGCTGATAGG,1.59
6,AGATAAATAAATCAAGATCACTGCCTTGGA,-1.2
7,ATCAGAGTCCAGCTGTGCCCCAGTCCTTCA,1.13
8,GGACTGGGCTGGAACACAAAGAAAGCCAAA,-1.04
9,TTCCCTGTCGCTATCTTATCTGGGCCAGGT,1.44
10,GGGCTAGAGCTTAAAAGCCCAACACGGGCG,-0.994
11,GCCAGCACAGGAGGCCTCTCAAAGCAGGAT,-1.14
12,TGGGCTGGGAGCTAATGAGCACATTCTTCA,-1.2
13,GACAGAAACCAAGCTGTCCGACTGCACACC,-1.17
14,CTGTCGGAATTTGCCCTGTGGTCTAGCTTG,1.78
15,GAATGTATTGAGAAGAAACCTTTGCCCAAC,2.79
16,ACCTTTGATCATTTGAGGGTGACACTGCTC,1.55
17,GACAGGATGGGGGTGGGAGGCTGGGAGGAG,-1.23
18,AGCGGGGGCAAGCCCACTCTCTGAGTCTGA,-1.03
19,CCCTTGGCCTACTTAGTCCAGGTTTAGCAA,-0.896
20,CAGCACCAAGAACAAACAAAAACCAAAAAA,-1.06

# From paper PMC10726135
